PubChem BioAssay AID1346428 (National Center for Advancing Translational Sciences (NCATS), 2018)
Among all 48,000 compounds or so, about 1,200 (2.5%) were called active. Not shown: some 2% with an inconclusive outcome.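 How the source made its calls: active means activation of at least 60% and not above a set upper limit (about 1 call in 100 departs from these limits); inconclusive means activation of 40% to 60%, or above that upper limit; inactive means activation under 40%.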 Some of the results follow.

Each compound was assayed against Probable G-protein coupled receptor 32 (Homo sapiens) (UniProt O75388) (assay: qHTS for Agonists of Human Resolvin D1 Receptor DRV1). Conditions: CHO-K1 GPR32 beta-arrestin PathHunter luminescence, 90 min; at 76.9 µM; hits give high values; zero percent set by DMSO-only wells.
In short: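 Step 1: seed CHO-K1 GPR32 beta-arrestin cells, 2,500/well, overnight at 37 °C. Step 2: add compounds, 90 min at 37 °C. Step 3: detection reagent, 1 h ambient, then luminescence.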
Further: 0% is about no effect.

UniProt O75388, sequence (O75388 whole entry, looked up): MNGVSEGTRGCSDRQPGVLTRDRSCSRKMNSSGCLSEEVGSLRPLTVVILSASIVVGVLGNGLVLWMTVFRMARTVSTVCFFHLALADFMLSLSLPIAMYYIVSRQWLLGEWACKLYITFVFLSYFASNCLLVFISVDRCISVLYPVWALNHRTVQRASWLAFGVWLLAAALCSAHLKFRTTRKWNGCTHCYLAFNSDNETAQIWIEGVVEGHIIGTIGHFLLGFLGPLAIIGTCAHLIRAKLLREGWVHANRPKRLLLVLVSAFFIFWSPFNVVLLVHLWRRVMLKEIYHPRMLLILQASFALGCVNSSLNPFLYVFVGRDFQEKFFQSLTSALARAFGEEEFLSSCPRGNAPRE

SMILES	activation
COc1ccc(Cl)cc1NC(=O)C(C)n1c(=O)cc(C(F)(F)F)c2c(C)nn(C)c21 (configuration not stated)	inactive: -7.78%
CS(=O)(=O)c1ncc(N(Cc2ccco2)Cc2cccs2)c(C(=O)Nc2ccccc2F)n1	inactive: -26.1%
Cc1ccc(Cn2ccn(Cc3ccc(C)cc3)c(=O)c2=O)cc1	inactive: -13.8%
CC1CCc2onc(C(=O)N3CCN(c4ccc(Cl)cc4)CC3)c2C1 (configuration not stated)	inactive: -17.8%
CCOc1ccc(CNC(=O)CCCn2nc(C)c3c(C)n(-c4ccc(C)cc4)nc3c2=O)cc1	inactive: -14.4%
CCOC(=O)OC(C)OC(=O)[C@@H]1N2C(=O)[C@@H](NC(=O)[C@H](N)c3ccccc3)[C@H]2SC1(C)C (some centres not stated)	inactive: 26%
COc1ccc(N2C(=O)NC(NS(=O)(=O)c3ccc(NC(C)=O)cc3)(C(F)(F)F)C2=O)cc1 (configuration not stated)	inactive: -10.4%
Cc1ccc(C(=O)N2CC(=O)Nc3ccc(Br)cc3C2c2ccc(F)cc2)cc1C (configuration not stated)	inactive: -30.3%
CCOC(=O)c1cc2c(=O)n3ccccc3nc2n(CC(C)C)c1=NC(=O)C(C)(C)Oc1ccc(Cl)cc1	inactive: -22%
CCc1ccc(NC(=O)Cn2cnc3nc4c(cc3c2=O)CCCC4)cc1	inactive: -1.68%
Cc1ccc(C)c(N2CCN(C(=O)CCc3c(C)nc4c(c3C)c(=O)n(C)c(=O)n4C)CC2)c1	inactive: 29%
CCN1CCN(C(=O)Cn2c(-c3cccs3)cc3cc(Cl)ccc32)CC1	inactive: -6.25%
COc1ccc(CNC(=O)Cc2c(C)c3c(O)cc(C)cc3oc2=O)cc1	inactive: 2.28%
CCc1ccc(-n2c3nc(=O)[nH]c(=O)c-3cc3c(C)nn(-c4ccccc4)c32)cc1	inactive: -0.14%
COc1ccc(C(CNC(=O)c2oc3ccccc3c2C)N2CCCCC2)cc1 (configuration not stated)	inactive: -27%
COc1ccccc1CNC(=O)C1CCN(c2ncnc3c2nc2n3CCCCC2)CC1	inactive: 17%
CC(C)CCNC(=O)c1c[nH]c2ccc(S(=O)(=O)Nc3cccc(C(F)(F)F)c3)cc2c1=O	inactive: -1.64%
O=C(c1ccco1)N(Cc1cccnc1)c1nc2ccc(F)cc2s1	inactive: -22%
Cc1cc(C)cc(NC(=O)C2CCCN(c3nnc(C)c4c(C)n(-c5ccccc5)nc34)C2)c1 (configuration not stated)	inactive: 12.4%
CCOC(=O)Cn1c(=O)oc2cc(S(=O)(=O)N3CCN(c4ccc(Cl)cc4)CC3)ccc21	inactive: -2.06%
CCc1ccc(C2C(C(=O)Nc3ccccc3)=C(C)Nc3c(C(=O)Nc4ccc(C)cc4)cnn32)cc1 (configuration not stated)	inactive: -12.3%

SMILES	activation
Cc1ccc(S(=O)(=O)NCC(c2ccc(N(C)C)cc2)N2CCCC2)cc1 (configuration not stated)	inactive: -23.2%
COc1cc(OC)cc(-c2nc3n(n2)C(c2ccccc2F)C(C(=O)Nc2cccnc2)=C(C)N3)c1 (configuration not stated)	inactive: -9.34%
CCc1ccc(S(=O)(=O)c2cn(C)c3cc(N4CCCCC4C)c(F)cc3c2=O)cc1 (configuration not stated)	inactive: -8.81%
COc1ccc(OCC(=O)Nc2nnc(S(=O)(=O)N3CCCCCC3)s2)cc1	inactive: 35.4%
CCc1c(C)c2ccc3c(c2oc1=O)CN(Cc1ccccc1)CO3	inactive: 48%
O=C(CSc1nccn1Cc1ccco1)Nc1cccc(F)c1	inactive: -4.09%
O=C(Nc1ccc(C(F)(F)F)cc1)C1CCC(CNS(=O)(=O)c2cccc3nsnc23)CC1 (configuration not stated)	active: 114%
CCOC(=O)C1CCN(C(c2ccccc2)c2c(O)cc(C)n(Cc3ccco3)c2=O)CC1 (configuration not stated)	inactive: -18.8%
Cc1ccc(-n2c(CCC(=O)O)ccc2-c2cccs2)cc1C	inactive: -23.5%
COc1cc(C2CC(=O)Nc3c2c(=O)[nH]c2nc4ccccc4n32)ccc1O (configuration not stated)	inactive: -5.84%
CCC(C)NC(=O)c1cc2c(Cl)nc3ccc(C)cc3c2s1 (configuration not stated)	inactive: -1.67%
CC1(C)C(=O)N(CC(=O)Nc2ccc(Cl)cc2)c2ccccc21	inactive: 8.81%
Oc1ccccc1O	inactive: 2.25%
Cc1ccc2c(c1)cc(C(=O)Nc1ccccc1C)n2C	inactive: -2.57%
COc1ccc(-c2nn3c(-c4ccc(OC)cc4)nnc3c3ccccc23)cc1	inactive: -1.01%
CCc1nn2c(=O)cc(COC(=O)c3ccccc3NC(=O)COc3ccccc3C)nc2s1	inactive: -6.75%
COc1cccc(OC(=O)CSc2nnc(-c3ccccc3OC)o2)c1	inactive: -1.97%
O=c1cc(CN2CCN(S(=O)(=O)c3ccc(Cl)cc3)CC2)nc2sc(-c3ccccc3F)nn12	inactive: -9.97%
O=S(=O)(NCCc1ccccc1)c1ccc(N2CCCCS2(=O)=O)cc1	inactive: 3.66%
O=C(CSc1nc(-c2ccc(Cl)cc2)nc2c1Cc1ccccc1O2)N1CCCCC1	inactive: 6.47%
Cc1ccc(N2C(=O)CS(=O)(=O)C23C(=O)N(Cc2cccc(F)c2)c2ccccc23)cc1Cl (configuration not stated)	inactive: 0.63%
